{"source": "PubChem BioAssay AID485297", "about": "(National Center for Advancing Translational Sciences (NCATS), 2010)", "note": "Several values for one entry are separate records, joined by “and”; a condition that tells them apart may be missing. Equal entries are not always repeated. Out of some 320,000 compounds screened, about 9,100 (2.8%) were called active. The shares of active, inactive and inconclusive entries below differ from those in the screen. Calls come from the whole dose curve; as a rule, active = well fitted activation curve with a large enough effect; inconclusive = small, poorly fitted or top-dose-only effect; inactive = no such curve, though single readings can be large or run the other way. No potency is given beside an inconclusive call; the fits are too rough. Potency is the fitted concentration of half-maximal effect; tags give direction and shape of the fitted curve.", "data": [{"assay": "qHTS Assay for Rab9 Promoter Activators; note: nearly all actives have a fitted effect of over 60% in size; for activation, negative = inhibition: % of control where 0% means no effect", "settings": "Huh7 Rab9 promoter-luciferase reporter, luminescence, 24 h; series mostly up to 9.22 µM; activation, negative = inhibition: at the top concentration", "how_it_was_run": "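Stable Rab9-luc Huh7, 1500 cells/well, 2 h settle; cmpd in DMSO, 24 h, 37 °C/5% CO2; luciferase reagent 10 min RT; luminescence.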", "values": [{"compound": "CC(=O)NCCc1nc2cc(NC(=O)c3ccc(F)cc3)ccc2n1C", "Potency": "active: 2 µM"}, {"compound": "CCN(CC)C(=O)CN1CCC(c2nc3cc(C)c(C)cc3[nH]2)CC1", "activation, negative = inhibition": "inactive: 0.252%"}, {"compound": "COc1ccc(Nc2nc(CC(C)=O)ns2)cc1", "Potency": "active: 3.16 µM"}, {"compound": "CCCOc1ccc(NC(=O)C2CC(=O)N/C(=N/N=C(C)/C=C/c3ccc(N(C)C)cc3)S2)cc1", "note": "(stereo unspecified)", "Potency": "inconclusive [activator, single point]"}, {"compound": "Cc1ccc(NC(=O)CCNS(=O)(=O)c2ccc(Br)cc2)cc1S(=O)(=O)N1CCOCC1", "activation, negative = inhibition": "inactive: -8.02%"}, {"compound": "Clc1ccccc1N=C1NN=C(c2cccs2)CS1", "Potency": "active: 2 µM"}, {"compound": "Cc1ccc(-c2nnc(SCC(=O)NC3CC3)o2)cc1", "Potency": "inconclusive [activator, single point]"}, {"compound": "Cc1nc(NC(=O)CSc2nnnn2C)sc1C", "Potency": "inconclusive [activator, partial curve]"}, {"compound": "O=C(Oc1ccc(-c2cnc3ccccc3n2)cc1)c1ccco1", "Potency": "inconclusive [activator, single point]"}, {"compound": "Cc1cccc(NC(=O)CSc2nccn2Cc2ccco2)c1C", "Potency": "inconclusive [activator, partial curve]"}, {"compound": "O=C(/C=C/c1ccco1)c1ccc(O)cc1", "Potency": "inconclusive [activator, single point]"}, {"compound": "Cc1nn(-c2ccccc2)c(Cl)c1/C=N/NC(=O)c1ccc(NS(=O)(=O)c2cccs2)cc1", "Potency": "inconclusive [activator, partial curve]"}, {"compound": "CCOC(=O)C1=C(C)C/C(=N\\NC(=O)c2ccccc2O)CC1", "Potency": "inconclusive [activator, partial curve]"}, {"compound": "Cc1ccc(N=Nc2c(O)ccc3n[nH]nc23)cc1", "Potency": "inconclusive [activator, full curve]"}, {"compound": "NC(=O)C1CCN(c2nc(-c3cc4ccccc4o3)cs2)CC1", "Potency": "inconclusive [activator, partial curve]"}, {"compound": "N#C/C(=C\\c1c[nH]c2ccccc12)C(=O)NC1CC1", "Potency": "inconclusive [activator, partial curve]"}, {"compound": "Oc1[nH]c2ccccc2c1C=Nc1ccc2c(c1)OCO2", "Potency": "active: 1.78 µM"}, {"compound": "CCOC(=O)CC1C(=O)NCCN1C(=S)Nc1ccccc1", "note": "(stereo unspecified)", "activation, negative = inhibition": "inactive: 0.413%"}, {"compound": "O=C(Cc1ccc(S(=O)(=O)N2CCOCC2)s1)Nc1ccc(N2CCOCC2)cc1", "Potency": "inconclusive [activator, partial curve]"}, {"compound": "CSc1ccc(C2N=C(c3ccccc3)NO2)cc1", "note": "(stereo unspecified)", "Potency": "active: 1.78 µM"}, {"compound": "O=C(NCC(=O)N1CCCCCC1)c1ccc(Cl)cc1", "Potency": "inconclusive [activator, partial curve]"}, {"compound": "CCn1c(=O)cc(OCC(=O)NCCCN2CC(C)CC(C)C2)c2ccccc21", "note": "(stereo unspecified)", "activation, negative = inhibition": "inactive: -1.78%"}, {"compound": "Cc1ccc(NC(=O)c2cncc(Br)c2)nc1", "Potency": "inconclusive [activator, partial curve]"}, {"compound": "COc1ccccc1CNC(=O)c1ccc(NC2=NC3CS(=O)(=O)CC3S2)cc1", "note": "(stereo unspecified)", "activation, negative = inhibition": "inactive: -1.83%"}, {"compound": "CCOC(=O)N1CCN(C(=O)CNC2CCCCCCC2)CC1", "activation, negative = inhibition": "inactive: -2.12%"}, {"compound": "CC(=O)N(c1nnc(-c2ccc(C)cc2)s1)C1CCCC1", "Potency": "inconclusive [activator, partial curve]"}, {"compound": "CC(C)NC(=O)CSc1nc(N)c(-c2ccccc2)c(=O)[nH]1", "activation, negative = inhibition": "inactive: 11%"}, {"compound": "O=C(N/N=C/c1c[nH]c2ccccc12)c1cc(-c2ccc(-c3ccccc3)cc2)n[nH]1", "Potency": "inconclusive [activator, single point]"}, {"compound": "COc1ccc(Nc2nc3c(C)cccc3cc2C#N)c(OC)c1", "activation, negative = inhibition": "inactive: -9.47%"}, {"compound": "Cc1cc(N2CCOCC2)nc2ccc(NC(=O)CCC(=O)N3CCN(c4cccc(C(F)(F)F)c4)CC3)cc12", "Potency": "inconclusive [activator, partial curve]"}, {"compound": "COc1cccc(Nc2nc(-c3ccc4c(c3)OCCO4)cs2)c1", "Potency": "active: 3.16 µM"}, {"compound": "COc1ccc(S(=O)(=O)NCC2CCCN(C(=O)CCSC)C2)cc1", "note": "(stereo unspecified)", "activation, negative = inhibition": "inactive: 2.21%"}, {"compound": "Cc1cccc(C#Cc2ccccc2)n1", "Potency": "active: 3.98 µM and active: 5.01 µM"}, {"compound": "Nc1ccc(C(=O)OCC(=O)N2CCOCC2)cc1[N+](=O)[O-]", "Potency": "inconclusive [activator, partial curve]"}, {"compound": "c1ccc(-c2nnc(-c3ccccn3)s2)nc1", "Potency": "active: 0.0891 µM"}, {"compound": "COc1ccc(CN2CCC(n3nccc3NC(=O)C3CC3)CC2)c(OC)c1OC", "activation, negative = inhibition": "inactive: -4.65%"}, {"compound": "Cc1ccc(OCC(=O)Nc2ccc(Cl)cc2)c([N+](=O)[O-])n1", "Potency": "inconclusive [activator, full curve]"}, {"compound": "CC(NC(=O)CN1CCN(c2ccccc2F)CC1)c1ccccc1", "note": "(stereo unspecified)", "activation, negative = inhibition": "inactive: 0.54%"}, {"compound": "Cc1cc(C)nc(NC(=O)c2ccc(Cl)cc2[N+](=O)[O-])c1", "activation, negative = inhibition": "inactive: 0.117%"}, {"compound": "COc1ccc(NS(=O)(=O)c2cc3c(cc2C)N(C(C)=O)CCO3)c(OC)c1", "activation, negative = inhibition": "inactive: 3.81%"}, {"compound": "N/C(=N\\c1nc2ccccc2o1)NC(=O)c1ccccc1", "Potency": "inconclusive [activator, partial curve]"}, {"compound": "Cn1c(SCC(=O)NCC2CCCO2)ncc(C(=O)Nc2ccc(Cl)cc2)c1=O", "note": "(stereo unspecified)", "Potency": "inconclusive [activator, single point]"}, {"compound": "CC(C)[C@H](NC(=O)c1ccccc1Cl)C(=O)NC1CCCCCC1", "activation, negative = inhibition": "inactive: 0.167%"}, {"compound": "COc1cccc(C2=NNC(=NCc3ccccc3)SC2)c1", "Potency": "inconclusive [activator, partial curve]"}, {"compound": "Cc1ccc(Sc2ccc(N)cn2)cc1", "activation, negative = inhibition": "inactive: 6.13%"}, {"compound": "CCCCCCOc1ccc(C(=O)O)cc1", "activation, negative = inhibition": "inactive: 4.98%"}, {"compound": "CCOc1ccc(NC(=O)n2ncc3c(C)cccc32)cc1", "Potency": "active: 1.41 µM"}, {"compound": "O=C(Nc1ccc(-c2noc(-c3ccccc3F)n2)cc1)c1cccs1", "Potency": "active: 1.58 µM"}, {"compound": "CN(CC(=O)Nc1ccccc1-c1ccccc1)Cc1ccccc1Cl", "activation, negative = inhibition": "inactive: 0.811%"}, {"compound": "CCOc1ccc(N=Cc2c(C)[nH]n(-c3nc4ccccc4[nH]3)c2=O)cc1", "Potency": "inconclusive [activator, single point]"}, {"compound": "CCc1c(C(=O)Nc2nnc(C3CC3)s2)csc1C", "Potency": "inconclusive [activator, partial curve]"}]}]}
